Test results taken from PubChem BioAssay AID1346428 (National Center for Advancing Translational Sciences (NCATS), 2018).
Screen size: about 48,000 compounds; about 1,200 (2.5%) were called active. The shares of active, inactive and inconclusive entries below differ from those in the screen.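 The calls were made as follows: active = activation of at least 60% and not above a set upper limit (about 1 call in 100 departs from these limits); inconclusive = activation of 40% to 60%, or above that upper limit; inactive = activation under 40%.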

Target: Probable G-protein coupled receptor 32 (Homo sapiens) (UniProt O75388)
Assay: qHTS for Agonists of Human Resolvin D1 Receptor DRV1; also: 0% is about no effect
Conditions: CHO-K1 GPR32 beta-arrestin PathHunter luminescence, 90 min; at 76.9 µM; stronger effect = higher value; zero percent set by DMSO-only wells
Outline: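 Agonism was scored as beta-arrestin recruitment to ProLink-fused GPR32 in stably transfected CHO-K1 cells, giving a chemiluminescent beta-Gal signal; compounds were incubated 90 min at 37 °C.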

Sequence of UniProt O75388 (O75388 whole entry, looked up): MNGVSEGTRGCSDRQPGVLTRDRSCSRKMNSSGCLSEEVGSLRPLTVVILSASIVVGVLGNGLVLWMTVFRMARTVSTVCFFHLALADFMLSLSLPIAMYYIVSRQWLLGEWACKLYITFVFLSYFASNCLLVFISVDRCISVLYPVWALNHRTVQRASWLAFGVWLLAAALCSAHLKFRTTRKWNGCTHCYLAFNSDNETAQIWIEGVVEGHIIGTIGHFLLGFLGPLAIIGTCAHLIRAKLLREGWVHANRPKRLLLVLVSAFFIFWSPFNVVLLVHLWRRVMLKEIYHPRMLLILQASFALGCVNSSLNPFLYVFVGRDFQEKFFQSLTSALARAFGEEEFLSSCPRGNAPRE

activation, inactive:
CCOC(=O)c1scc(-c2ccccc2)c1S(=O)(=O)N1CCN(c2ccc(Cl)cc2)CC1 -19.2%
CCOC(=O)C1CCCN(S(=O)(=O)c2cc(-c3onc(C)c3C)ccc2OC)C1 (stereo not given) -8.25%
Cc1ccc(NC(=O)CN2C(=O)CCc3cc(S(=O)(=O)N4CCOCC4)ccc32)cc1N(C)C 3.99%
COc1ccc(Nc2c3c(nc4ccc(NC(=O)/C=C/c5cccc(OC)c5OC)cc24)CCCC3)cc1OC -0.455%
CC(CNS(=O)(=O)c1ccc2c(c1)CC(=O)N2C)c1ccccc1 (stereo not given) -9.32%
CCCCC(=O)Oc1ccc2oc(-c3ccc(OC)cc3)cc(=O)c2c1 -6.38%
O=C(O)Cn1nnc(-c2ccc(OCc3cccc(C(F)(F)F)c3)cc2)n1 0.339%
CCOc1ccc(CNCCSc2nnnn2C)cc1OC -6.11%
CC(C)OCCCN1C(=O)c2[nH]nc(-c3ccccc3O)c2C1c1ccc(OCc2ccccc2)cc1 (stereo not given) 23%
CCOc1ccc(CCNC(=O)CCCn2c(=O)c3cccn3c3cccnc32)cc1 -12.5%
CCOCCOC(=O)c1ccc2c(c1)N(Cc1ccccc1C#N)C(=O)c1ccccc1S2(=O)=O 0.748%
COc1cccc(CNC(=O)c2nc(Cn3nc(C)c(Br)c3C)no2)c1 5.71%
Cc1ccc(CN(C(=O)c2ccccc2F)c2ccccn2)o1 -3.92%
CCOC(=O)c1cccc(Nc2cc(-c3ccccc3)ncn2)c1 26.6%

activation, active:
COc1cc(C(C)=O)ccc1OCCCN1CCC(c2noc3cc(F)ccc23)CC1 70.9%
NS(=O)(=O)c1ccc(CCNc2nccn(-c3cccc(C(F)(F)F)c3)c2=O)cc1 63.1%
O=C(Nc1cccc(Cl)c1)C1CCN(S(=O)(=O)Cc2ccccc2)CC1 115%
Cc1ccc(NS(=O)(=O)c2ccc3c(c2)NC(=O)CCS3)c(Br)c1 120%
CC(C)Oc1ccc(NC(=O)c2cc3ccccc3o2)cc1 63.5%
CCOC(=O)c1nc(NCc2ccc(Cl)cc2)c2c(C)noc2n1 64.8%

activation, inconclusive:
Clc1cccc(-n2ncc3c(NCCCc4ccccc4)ncnc32)c1 169%
Cc1cn2c(=O)cc(COc3cccc(NC(=O)c4cccc(F)c4)c3)nc2s1 55.2%
Cc1ccc(Sc2ccc(N3CCC(C(=O)Nc4cc(C)cc(C)c4)CC3)nn2)cc1 58.2%
CCOc1ccccc1NC(=O)c1nc(S(=O)(=O)Cc2cccc(C)c2)ncc1Cl 340%
COc1cccc(-c2nc(-c3ccc(Br)o3)no2)c1 55.7%
Cc1cc(=O)n(Cc2cccc(Cl)c2)c2c1c(C)nn2C 54.4%
CCN(CCCNC(=O)c1cc2cc3ccc(OC)cc3nc2s1)c1cccc(C)c1 206%
COc1ccc(-n2ccnc(NCc3ccccc3OC)c2=O)cc1 128%
Cc1ccc(NS(=O)(=O)c2ccc3c(c2)n(C)c(=O)n3C)cc1C 127%
CCc1ccccc1NC(=O)Cn1nnc(C(=O)NCc2ccccc2Cl)c1N 55.6%
COc1ccc(Cl)cc1NS(=O)(=O)c1ccc2[nH]c3c(c2c1)CCCC3 55%
CC(=O)c1ccc(NC(=O)c2ccc(-c3ccc(Cl)cc3)o2)cc1 52.6%
COc1cc(Cl)c(NS(=O)(=O)c2ccc(-c3cnc(C4CC4)o3)cc2)c(OC)c1 199%
Cn1nc(-c2ccccc2F)c2cc(C(=O)Nc3cc(F)ccc3F)sc21 167%
Cc1ccccc1OCC(=O)Nc1ccc2nc(SCC(N)=O)sc2c1 274%
Cc1ccc2nc(N(CCCN(C)C)C(=O)c3ccc(Br)s3)sc2c1 129%
Cc1ccccc1NC(=O)CSc1nc2c(oc3ccccc32)c(=O)n1-c1ccccc1F 456%
Cc1oc(-c2ccccc2)nc1CNC(=O)Nc1ccccc1 388%
COc1ccccc1-c1nn(CCC(=O)Nc2cccc(C(C)=O)c2)c2nc(C)cc(C)c12 141%
CSc1nc2c([nH]c3ccccc32)c(=O)n1-c1ccc(F)cc1 122%
O=C(Cc1ccc(Cl)cc1)Nc1ccc2oc(-c3ccc(F)cc3)nc2c1 181%
COCCn1ccc2c(OCC(=O)Nc3cccc(C(F)(F)F)c3)cccc2c1=O 141%
CC(=O)c1cccc(NC(=O)c2ccc(Cl)c(S(=O)(=O)N3CCOCC3)c2)c1 51.8%
CC(NC(=O)CCCN1C(=O)CCn2nc(-c3cn(C)c4ccccc34)cc21)c1ccccc1 (stereo not given) 211%
C=Cc1ccc(Cn2c(C)c(CNCCc3ccccc3C)c(C(=O)O)c2C)cc1 193%
CCc1ccccc1NC(=O)Cn1nc(C(F)(F)F)c2c1CCCC2 54.5%
COc1ccc(-c2nc3ccc(NS(=O)(=O)c4ccccc4)cc3o2)cc1 204%
CCCC(=O)Nc1nnc(SCc2cc(=O)c3ccc(C)cc3[nH]2)s1 50.8%
O=C(COc1ccccc1F)Nc1nnc(SCc2cc(=O)c3ccccc3[nH]2)s1 121%
CN(C)CCCOc1nn(Cc2ccccc2)c2ccccc12 51.3%
CC(C)c1ccc2oc(-c3ccc(NC(=O)c4cccc(Br)c4)cc3)nc2c1 126%
Cc1ccc(NC(=O)CC(C)S(=O)(=O)c2ccc3c(c2)NC(=O)CO3)c(Cl)c1 (stereo not given) 132%
Cc1cc(NC(=O)C2CCN(S(=O)(=O)c3cccc4nsnc34)CC2)ccc1Br 140%
Cc1ccc(C(=O)Nc2ccc3oc(-c4cccnc4)nc3c2)c(Cl)c1 186%
COc1ccc(C)cc1NS(=O)(=O)c1ccc2c3c(cccc13)C(=O)N2 167%
